{"source": "PubChem BioAssay AID463173", "about": "(ICCB-Longwood Screening Facility, Harvard Medical School, 2010)", "note": "About 1,700 (3.3%) of roughly 52,000 compounds were called active. No stated cut-off is given here; in the data, active means survival mostly below about 52% (no sharp cut-off); inactive means mostly above about 56%. The list shows a part of the results.", "data": [{"test_system": "Wild type", "experiment": "S. aureus survival, RN4220 and DeltatarO strains – OD600, teichoic acid synthesis inhibitors, primary screen (AID 463173)", "settings": "S. aureus RN4220 wild type/DeltatarO growth, OD600, 18 h, active compounds read low, screened at 18.75 µg/mL (by protocol)", "values": [{"smiles": "COc1ccc(Cn2c(CCC(=O)Nc3ccc(OC)c(Cl)c3)nc3cccnc32)cc1", "survival": "inactive: 144%"}, {"smiles": "CCOc1ccc(NC(=O)CCC(=O)N2CCSc3ccccc32)cc1", "survival": "inactive: 87%"}, {"smiles": "CCCC(=O)n1nc(-c2cccnc2)nc1NCc1ccccc1", "survival": "inactive: 83%"}, {"smiles": "CCc1ccccc1NC(=O)Cn1c(=O)n(CCc2ccccc2)c(=O)c2ccccc21", "survival": "inactive: 106%"}, {"smiles": "O=C(Nc1ccc2nc(SCC(=O)N3CCOCC3)sc2c1)c1cccc(F)c1", "survival": "inactive: 87%"}, {"smiles": "COc1ccc(NS(=O)(=O)c2c(C)nc3scc(C)n3c2=O)cc1", "survival": "inactive: 78%"}, {"smiles": "COc1cccc(NC(=O)CSC2=Nc3ccccc3C3=NC(CC(=O)NCc4ccccc4OC)C(=O)N23)c1", "note": "(stereo not given)", "survival": "inactive: 152%"}, {"smiles": "CCCCNC(=O)CCSc1nc(-c2ccc3c(c2)OCO3)cc(C(F)(F)F)n1", "survival": "inactive: 85%"}, {"smiles": "CCOC(=O)N1CCN(S(=O)(=O)N2CCCC(C(=O)NCc3ccc(OC)cc3OC)C2)CC1", "note": "(stereo not given)", "survival": "inactive: 57%"}, {"smiles": "O=c1oc2ccc(Cl)cc2cc1-c1cn2c(n1)sc1ccccc12", "survival": "inactive: 123%"}, {"smiles": "O=C(NCc1cccnc1)c1c[nH]c2cc3c(cc2c1=O)OCCO3", "survival": "inactive: 105%"}, {"smiles": "COC(=O)c1scc(-c2ccccc2)c1S(=O)(=O)Nc1ccc(C)c(Cl)c1", "survival": "inactive: 87%"}, {"smiles": "CCOc1ccc(NC(=O)c2c(NCc3cccs3)sc3c2CCCCC3)cc1", "survival": "inactive: 64%"}, {"smiles": "Cc1ccnc2nc(NC(=O)c3ccccc3Cl)nn12", "survival": "inactive: 87%"}, {"smiles": "CCc1ccc2[nH]c(=O)c(CN(Cc3ccco3)C(=O)c3ccccc3)cc2c1", "survival": "inactive: 108%"}, {"smiles": "Cc1cccc(OCC(=O)N(Cc2ccc(N(C)C)cc2)Cc2ccco2)c1C", "survival": "inactive: 78%"}, {"smiles": "COc1ccc(C2C=C(c3ccccc3)Nc3nc(NC(=O)/C=C/c4ccccc4OC)nn32)cc1", "note": "(stereo not given)", "survival": "inactive: 75%"}, {"smiles": "CCOC(=O)c1cc2sc(C)cc2n1CC(=O)N1CCCCC1C", "note": "(stereo not given)", "survival": "inactive: 105%"}, {"smiles": "Cc1cccc(N(CC(=O)N(C)Cc2ccccc2)S(=O)(=O)c2ccccc2)c1C", "survival": "inactive: 77%"}, {"smiles": "CCC(=O)N1CCc2cc(Br)cc(S(=O)(=O)N3CCCC(C(=O)Nc4ccc(OC)cc4OC)C3)c21", "note": "(stereo not given)", "survival": "inactive: 81%"}, {"smiles": "CCc1ccc(S(=O)(=O)c2nnn3c2nc(NC(C)C)c2cc(Cl)ccc23)cc1", "survival": "inactive: 83%"}, {"smiles": "COc1ccccc1CNC(=O)c1ccc(CS(=O)c2ccccc2Cl)o1", "note": "(stereo not given)", "survival": "inactive: 83%"}, {"smiles": "CC12CN3CC(c4ccccc4)(CN(C1)C3c1ccc(Cl)cc1)C2=O", "note": "(stereo not given)", "survival": "inactive: 90%"}, {"smiles": "CC(=O)c1cc(-c2ccccc2)n(CCC(=O)NC2CCCCC2)c1C", "survival": "inactive: 93%"}, {"smiles": "COc1ccc(N2CCN(c3oc(/C=C/c4ccccc4OC)nc3C#N)CC2)cc1", "survival": "inactive: 86%"}, {"smiles": "COc1ccc(NC(=O)C(=O)NCc2ccco2)c(OC)c1", "survival": "inactive: 145%"}, {"smiles": "CC(C)Oc1ccc(CNC(=O)c2cccc(NC(=O)c3nsc4ccccc34)c2)cc1", "survival": "inactive: 77%"}, {"smiles": "COc1ccc(OC)c(CNC(=O)C2CCN(S(=O)(=O)c3ccc4[nH]c(=O)oc4c3)CC2)c1", "survival": "inactive: 63%"}, {"smiles": "Nc1cccc(CN2CCCC2)c1", "survival": "inactive: 116%"}, {"smiles": "CCOc1ccc(CC(=O)Nc2c(C(=O)c3ccc(F)cc3)oc3ccc(Cl)cc23)cc1OCC", "survival": "inactive: 60%"}, {"smiles": "Cc1cc(C)cc(NC(=O)N2CCC(N3CCN(Cc4ccccc4)C(=O)C3=O)CC2)c1", "survival": "inactive: 68%"}, {"smiles": "O=C(Nc1ccc(C(=O)OCc2cc(=O)n3ccsc3n2)cc1)c1cccc(F)c1", "survival": "inactive: 73%"}, {"smiles": "COc1ccc(Nc2c3c(nc4ccc(NC(=O)c5cc(Cl)ccc5OC)cc24)CCCC3)cc1OC", "survival": "inactive: 90%"}, {"smiles": "CN1CCN(S(=O)(=O)c2cccc(S(=O)(=O)c3ccc(Cl)c(Cl)c3)c2)CC1", "survival": "inactive: 102%"}, {"smiles": "CCNC(=S)N1CCC(n2cnc3ccccc32)CC1", "survival": "inactive: 98%"}, {"smiles": "Cn1c(C(=O)N2CCC(C(=O)N3CCN(c4ccccc4)CC3)CC2)cc2sccc21", "survival": "inactive: 80%"}, {"smiles": "Cc1ccc(CNC(=O)c2c[nH]n3c(=O)c(Cc4ccc(F)cc4Cl)c(C)nc23)cc1", "survival": "active: -15%"}, {"smiles": "Cc1nnc(N2CCN(c3cccc(C(F)(F)F)c3)CC2)c2c1nnn2Cc1ccccc1", "survival": "inactive: 88%"}, {"smiles": "COc1ccc(N2Cc3cccc(C(=O)Nc4cccc(F)c4)c3C2=O)cc1", "survival": "inactive: 88%"}, {"smiles": "Cc1ccc(-c2cc(NC(=O)C(C)Oc3ccccc3F)on2)cc1", "note": "(stereo not given)", "survival": "inactive: 66%"}, {"smiles": "CN(C)c1ccc(C(=O)Nc2ccc(-c3nc4ccccc4o3)cc2)cc1", "survival": "inactive: 103%"}, {"smiles": "Cc1cc(NC(=O)C2CCCN(S(=O)(=O)c3cn(C)cn3)C2)ccc1Br", "note": "(stereo not given)", "survival": "inactive: 81%"}, {"smiles": "Cc1noc2ncnc(NCc3ccc(Cl)cc3)c12", "survival": "inactive: 135%"}, {"smiles": "CC(C)NC(=O)CSc1nc2ccccc2n1CC(=O)NC(C)C", "survival": "inactive: 112%"}, {"smiles": "CCOC(=O)c1ccc(-c2ccc(/C=C(\\C#N)C(=O)NCc3cccs3)o2)cc1", "survival": "inactive: 110%"}, {"smiles": "CCOC(=O)c1ccc(N2C(=O)c3n[nH]c(-c4cccs4)c3C2c2ccc(OC)cc2OC)cc1", "note": "(stereo not given)", "survival": "inactive: 92%"}, {"smiles": "O=C(Nc1nc2c(s1)CCCC2)c1ccccc1F", "survival": "inactive: 73%"}, {"smiles": "CC(C)c1ccc(C2=NC(c3ccncc3)=Nc3ccc(F)cc3N2)cc1", "survival": "inactive: 84%"}, {"smiles": "Cc1ccc(NC(=O)c2ccc(N(Cc3ccccc3)S(C)(=O)=O)cc2)cc1", "survival": "inactive: 94%"}, {"smiles": "COc1ccc(OC)c(CCNC(=O)c2nn(C)c3c2CSc2ccccc2-3)c1", "survival": "inactive: 82%"}, {"smiles": "CNC(=O)c1ccc2nc(Cc3ccccc3)oc2c1", "survival": "inactive: 32%"}, {"smiles": "CCOC(=O)c1c(S(=O)(=O)N2CCN(c3cccc(C(F)(F)F)c3)CC2)c(C)n(C)c1C", "survival": "inactive: 135%"}, {"smiles": "CCCn1cc(S(=O)(=O)c2ccc(CC)cc2)c(=O)c2cc(F)c(N3CCN(C)CC3)cc21", "survival": "inactive: 85%"}, {"smiles": "CCOc1ccc(Cn2c(CNS(=O)(=O)c3ccc(CC)cc3)nc3cccnc32)cc1", "survival": "inactive: 69%"}, {"smiles": "Cc1ccc(C(=O)c2oc3ccccc3c2NC(=O)C(C)Oc2ccccc2Cl)cc1", "note": "(stereo not given)", "survival": "inactive: 46%"}, {"smiles": "COc1ccccc1C(=O)N=C1NC(=O)CC2C(=O)NCCN12", "note": "(stereo not given)", "survival": "inactive: 96%"}, {"smiles": "CCOC(=O)N1CCC(NC(=O)c2ccc3c(c2)N(Cc2ccc(Cl)cc2)C(=O)c2ccccc2S3(=O)=O)CC1", "survival": "inactive: 100%"}, {"smiles": "CC(C)c1ccc2oc(-c3ccc(Cl)c(NC(=O)Cc4ccccc4)c3)nc2c1", "survival": "inactive: 120%"}, {"smiles": "CCC1CCc2c(sc(NC(=O)C3c4ccccc4Oc4ccccc43)c2C(=O)OC)C1", "note": "(stereo not given)", "survival": "inactive: 80%"}, {"smiles": "CC1CCN(C(=O)c2ccc3c(c2)nnn3C)CC1", "survival": "inactive: 100%"}, {"smiles": "COc1ccc(NC(=O)c2c(NCc3cccs3)sc3c2CCCCC3)c(OC)c1", "survival": "inactive: 97%"}, {"smiles": "Cc1cc(Br)ccc1NC(=O)CCNS(=O)(=O)c1cccc2nonc12", "survival": "inactive: 63%"}, {"smiles": "O=C(c1cnn2c(C(F)F)cc(-c3ccccc3)nc12)N1CCCC1", "survival": "inactive: 110%"}, {"smiles": "O=C(Nc1ccc(Br)cc1F)c1cc2nc(-c3ccco3)cc(C(F)(F)Cl)n2n1", "survival": "inactive: 57%"}, {"smiles": "O=C(Cn1cc(SCc2ccccc2F)c2ccccc21)N1CCCC1", "survival": "inactive: 82%"}, {"smiles": "O=S(=O)(c1ccc(OC(F)(F)F)cc1)N1CCC(c2nc3ccccc3s2)CC1", "survival": "inactive: 85%"}, {"smiles": "COc1ccc2c(c1)CC(C(=O)Nc1ccc(OC)cc1OC)CO2", "note": "(stereo not given)", "survival": "inactive: 113%"}, {"smiles": "CCOc1ccc(OCC)c(Nc2nc3ccc(C(=O)c4ccccc4)cc3n3cnnc23)c1", "survival": "inactive: 90%"}, {"smiles": "COC(=O)C1CC(=O)N(c2ccccc2)C1", "note": "(stereo not given)", "survival": "inactive: 98%"}, {"smiles": "CCc1ccc(NC(=O)C2CCN(S(=O)(=O)c3c(C)noc3C)CC2)cc1", "survival": "inactive: 84%"}, {"smiles": "CCC(=O)Nc1ccccc1-c1nc2ccccc2n(CC(=O)Nc2ccc(C)c(C)c2)c1=O", "survival": "inactive: 83%"}, {"smiles": "COc1ccc(C2=NN(CC(=O)NCCc3ccccc3)C(=O)CC2)cc1", "survival": "inactive: 140%"}, {"smiles": "Cn1c(=O)c2cc(C(=O)Nc3cccc(C#N)c3)sc2c2ccccc21", "survival": "inactive: 123%"}, {"smiles": "COC(=O)c1ccc(NC(=O)NC(C)c2c(-n3cccc3)sc(C)c2C)cc1", "note": "(stereo not given)", "survival": "inactive: 89%"}, {"smiles": "O=C(NCc1ccccc1)c1ccc2c(c1)N(Cc1ccc(F)cc1)CCS2", "survival": "inactive: 103%"}, {"smiles": "COc1ccc(CCNC(=O)CSCc2nc(-c3cccc(C)c3)oc2C)cc1OC", "survival": "inactive: 74%"}, {"smiles": "COc1ccc(Cl)cc1NC(=O)c1sc2nc(-c3ccc(OC)c(OC)c3)ccc2c1N", "survival": "inactive: 142%"}, {"smiles": "O=C(NC1CCCC1)c1ccc(CSc2nc3cccnc3n2Cc2ccccc2)cc1", "survival": "inactive: 69%"}, {"smiles": "O=C(COc1ccc(Cl)cc1)Nc1ccc(-c2nc3cc(Cl)ccc3o2)c(O)c1", "survival": "inactive: 88%"}, {"smiles": "COC(=O)c1sc2cccc(F)c2c1S(=O)(=O)Nc1cc(C)c(Cl)cc1OC", "survival": "inactive: 85%"}, {"smiles": "CCc1cccc(C)c1NC(=O)CN1C(=O)c2ccccc2Sc2ncccc21", "survival": "inactive: 88%"}, {"smiles": "O=S(=O)(c1ccc(Cl)c2ccccc12)N1CCCC1", "survival": "inactive: 109%"}, {"smiles": "CCCNC(=O)C1CCC(Cn2c(=O)c3sccc3n(CC(=O)N3CCCC3)c2=O)CC1", "note": "(stereo not given)", "survival": "inactive: 93%"}, {"smiles": "CCCNC(=O)CN1C(=O)c2c(c3ccccc3n2C)C1c1ccc(OC)cc1", "note": "(stereo not given)", "survival": "inactive: 82%"}, {"smiles": "CCCC(=O)Nc1sc2c(c1C(N)=O)CCC2", "survival": "inactive: 115%"}, {"smiles": "COc1ccc(CNC(=O)c2cc3oc4ccccc4c3n2C)cc1OC", "survival": "inactive: 64%"}, {"smiles": "Cc1c(C(=O)Nc2cccc(C#N)c2)sc2nc3n(c(=O)c12)CCCCC3", "survival": "inactive: 78%"}, {"smiles": "CCc1ccc(S(=O)(=O)c2nnn3c2nc(N2CCC(C(N)=O)CC2)c2cc(Cl)ccc23)cc1", "survival": "inactive: 69%"}, {"smiles": "CC1CN(C(=O)N2CCC(C(=O)NCc3ccco3)CC2)c2ccccc2O1", "note": "(stereo not given)", "survival": "inactive: 83%"}, {"smiles": "O=C(Nc1nc2ccccc2n1CCOc1ccccc1Cl)c1ccccc1", "survival": "inactive: 36%"}]}]}
